Source: the supplement of paper PMC8728848
Some of the results follow.

How the values were obtained:
Experiment in all cases: glycan array binding signal (z-score within array); higher = stronger binding
Conditions in all cases: glycan notation: IUPAC condensed, linker removed
[1] = biological target: Neu5Ac(a2-6)Gal(b1-4)GlcNAc(b1-2)Man(a1-3)[Man(a1-6)]Man(b1-4)GlcNAc(b1-4)GlcNAc
How it was run: (§1)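 From the Consortium for Functional Glycomics database, 3228 arrays were curated, keeping only those whose protein sequence was available. Binding is given as a within-array Z-score averaged across arrays sharing a protein sequence and across linkers. Negative Z-scores can be read as non-binding.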

[2] = biological target: Neu5Ac(a2-6)Gal(b1-4)GlcNAc(b1-2)Man(a1-3)[Neu5Ac(a2-3)Gal(b1-4)GlcNAc(b1-2)Man(a1-6)]Man(b1-4)GlcNAc(b1-4)GlcNAc
How it was run: as §1

[3] = biological target: Neu5Ac(a2-6)Gal(b1-4)GlcNAc(b1-2)Man(a1-3)[Neu5Ac(a2-6)Gal(b1-4)GlcNAc(b1-2)Man(a1-6)]Man(b1-4)GlcNAc(b1-4)GlcNAc
How it was run: as §1

[4] = biological target: Neu5Ac(a2-6)Gal(b1-4)GlcNAc(b1-2)Man(a1-3)[Neu5Ac(a2-6)Gal(b1-4)GlcNAc(b1-2)Man(a1-6)]Man(b1-4)GlcNAc(b1-4)[Fuc(a1-6)]GlcNAc
How it was run: as §1

[5] = biological target: Neu5Ac(a2-6)Gal(b1-4)GlcNAc(b1-2)Man(a1-6)Man(b1-4)GlcNAc(b1-4)GlcNAc
How it was run: as §1

[6] = biological target: Neu5Ac(a2-6)Gal(b1-4)GlcNAc(b1-2)Man(a1-6)[Gal(b1-4)GlcNAc(b1-2)Man(a1-3)]Man(b1-4)GlcNAc(b1-4)GlcNAc
How it was run: as §1

[7] = biological target: Neu5Ac(a2-6)Gal(b1-4)GlcNAc(b1-2)Man(a1-6)[GlcNAc(b1-2)Man(a1-3)]Man(b1-4)GlcNAc(b1-4)GlcNAc
How it was run: as §1

[8] = biological target: Neu5Ac(a2-6)Gal(b1-4)GlcNAc(b1-2)Man(a1-6)[Man(a1-3)]Man(b1-4)GlcNAc(b1-4)GlcNAc
How it was run: as §1

[9] = biological target: Neu5Ac(a2-6)Gal(b1-4)GlcNAc(b1-2)[Neu5Ac(a2-6)Gal(b1-4)GlcNAc(b1-4)]Man(a1-3)[GlcNAc(b1-4)][Neu5Ac(a2-6)Gal(b1-4)GlcNAc(b1-2)[Neu5Ac(a2-6)Gal(b1-4)GlcNAc(b1-6)]Man(a1-6)]Man(b1-4)GlcNAc(b1-4)GlcNAc
How it was run: as §1

[10] = biological target: Neu5Ac(a2-6)Gal(b1-4)GlcNAc(b1-2)[Neu5Ac(a2-6)Gal(b1-4)GlcNAc(b1-4)]Man(a1-3)[GlcNAc(b1-4)][Neu5Ac(a2-6)Gal(b1-4)GlcNAc(b1-4)Man(a1-6)]Man(b1-4)GlcNAc(b1-4)GlcNAc
How it was run: as §1

[11] = biological target: Neu5Ac(a2-6)Gal(b1-4)GlcNAc(b1-2)[Neu5Ac(a2-6)Gal(b1-4)GlcNAc(b1-6)]Man(a1-6)[Neu5Ac(a2-6)Gal(b1-4)GlcNAc(b1-2)Man(a1-3)][GlcNAc(b1-4)]Man(b1-4)GlcNAc(b1-4)GlcNAc
How it was run: as §1

[12] = biological target: Neu5Ac(a2-6)Gal(b1-4)GlcNAc(b1-3)Gal(b1-3)GlcNAc
How it was run: as §1

[13] = biological target: Neu5Ac(a2-6)Gal(b1-4)GlcNAc(b1-3)Gal(b1-4)GlcNAc
How it was run: as §1

[14] = biological target: Neu5Ac(a2-6)Gal(b1-4)GlcNAc(b1-3)Gal(b1-4)GlcNAc(b1-2)Man(a1-3)[Neu5Ac(a2-6)Gal(b1-4)GlcNAc(b1-3)Gal(b1-4)GlcNAc(b1-2)Man(a1-6)]GalNAc
How it was run: as §1

[15] = biological target: Neu5Ac(a2-6)Gal(b1-4)GlcNAc(b1-3)Gal(b1-4)GlcNAc(b1-3)Gal(b1-4)GlcNAc
How it was run: as §1

[16] = biological target: Neu5Ac(a2-6)Gal(b1-4)GlcNAc(b1-3)Gal(b1-4)GlcNAc(b1-3)Gal(b1-4)GlcNAc(b1-2)Man(a1-3)[Neu5Ac(a2-6)Gal(b1-4)GlcNAc(b1-3)Gal(b1-4)GlcNAc(b1-3)Gal(b1-4)GlcNAc(b1-2)Man(a1-6)]GalNAc
How it was run: as §1

[17] = biological target: Neu5Ac(a2-6)Gal(b1-4)GlcNAc(b1-3)Gal(b1-4)GlcNAc(b1-3)GalNAc
How it was run: as §1

[18] = biological target: Neu5Ac(a2-6)Gal(b1-4)GlcNAc(b1-3)Gal(b1-4)GlcNAc(b1-3)[Neu5Ac(a2-6)Gal(b1-4)GlcNAc(b1-3)Gal(b1-4)GlcNAc(b1-6)]GalNAc
How it was run: as §1

[19] = biological target: Neu5Ac(a2-6)Gal(b1-4)GlcNAc(b1-3)Gal(b1-4)GlcNAc(b1-6)[Gal(b1-3)]GalNAc
How it was run: as §1

[20] = biological target: Neu5Ac(a2-6)Gal(b1-4)GlcNAc(b1-3)Gal(b1-4)[Fuc(a1-3)]GlcNAc(b1-3)Gal(b1-4)[Fuc(a1-3)]GlcNAc
How it was run: as §1

[21] = biological target: Neu5Ac(a2-6)Gal(b1-4)GlcNAc(b1-3)GalNAc
How it was run: as §1

[22] = biological target: Neu5Ac(a2-6)Gal(b1-4)GlcNAc(b1-3)[Neu5Ac(a2-6)Gal(b1-4)GlcNAc(b1-6)]GalNAc
How it was run: as §1

[23] = biological target: Neu5Ac(a2-6)Gal(b1-4)GlcNAc(b1-6)GalNAc
How it was run: as §1

[24] = biological target: Neu5Ac(a2-6)Gal(b1-4)GlcNAc(b1-6)[Gal(b1-3)GlcNAc(b1-3)]Gal(b1-4)Glc
How it was run: as §1

[25] = biological target: Neu5Ac(a2-6)Gal(b1-4)GlcNAc(b1-6)[Gal(b1-3)]GalNAc
How it was run: as §1

[26] = biological target: Neu5Ac(a2-6)Gal(b1-4)GlcNAc6S
How it was run: as §1

Neu5Ac(a2-6)GalNAc = biological target: Neu5Ac(a2-6)GalNAc
How it was run: as §1

[27] = biological target: Neu5Ac(a2-6)GalNAc(b1-4)GlcNAc
How it was run: as §1

[28] = biological target: Neu5Ac(a2-6)GalNAc(b1-4)GlcNAc6S
How it was run: as §1

[29] = biological target: Neu5Ac(a2-6)GlcNAc(b1-4)GlcNAc
How it was run: as §1

[30] = biological target: Neu5Ac(a2-6)GlcNAc(b1-4)GlcNAc(b1-4)GlcNAc
How it was run: as §1

B1: Epa3to1 (Candida glabrata) (protein)
chain: MGSSHHHHHHSSGLVPRGSHMKRELSSQNPFGYPIGCSPQDVAIIPGLTMELYSYPIVSGTPPNCYDASYVDPEYPRTGYLKRKMVGKSTGVTGNLNYKYSVEKACMVKYGNLPAGYNYNEPLTVSNFTMILYGYFKAQTTGLHTFFVNADDLLYINFGAGNAFDCCKREDSKTKLGEYVAYDIWHVDSSKNKVSLFLEKDLYYPIRMFFNNREYDSSLDLSFSVNGATDQISDFSGYLYSVPDQPDTCPAHIGYDTTCR
[1]
  glycan array binding signal (z-score): 0.106
[2]
  glycan array binding signal (z-score): -0.253
[3]
  glycan array binding signal (z-score): -0.511
[4]
  glycan array binding signal (z-score): -0.358
[5]
  glycan array binding signal (z-score): 1.03
[6]
  glycan array binding signal (z-score): -0.585
[7]
  glycan array binding signal (z-score): 0.092
[8]
  glycan array binding signal (z-score): 0.233
[9]
  glycan array binding signal (z-score): -0.023
[10]
  glycan array binding signal (z-score): 0.754
[11]
  glycan array binding signal (z-score): -0.191
[12]
  glycan array binding signal (z-score): 4.57
[13]
  glycan array binding signal (z-score): -0.202
[14]
  glycan array binding signal (z-score): 0.011
[15]
  glycan array binding signal (z-score): 0.714
[16]
  glycan array binding signal (z-score): 0.07
[17]
  glycan array binding signal (z-score): 0.028
[18]
  glycan array binding signal (z-score): -0.125
[19]
  glycan array binding signal (z-score): -0.293
[20]
  glycan array binding signal (z-score): -0.035
[21]
  glycan array binding signal (z-score): -0.228
[22]
  glycan array binding signal (z-score): -0.078
[23]
  glycan array binding signal (z-score): 0.097
[24]
  glycan array binding signal (z-score): -0.036
[25]
  glycan array binding signal (z-score): 0.449
[26]
  glycan array binding signal (z-score): -0.26
Neu5Ac(a2-6)GalNAc
  glycan array binding signal (z-score): -0.459
[27]
  glycan array binding signal (z-score): -0.995
[28]
  glycan array binding signal (z-score): -0.365
[29]
  glycan array binding signal (z-score): -0.094
[30]
  glycan array binding signal (z-score): -1.23
